# Test results published in PubChem BioAssay AID1347428 (National Center for Advancing Translational Sciences (NCATS), 2020).
# In all, about 91,000 compounds went through this assay and about 290 (0.32%) were called active. The inconclusive results got no clear call from the source; some entries with a clear call stand among them for comparison. Calls come from the whole dose curve; as a rule, active = well fitted inhibition curve with a large enough effect; inconclusive = small, poorly fitted or top-dose-only effect; inactive = no such curve, though single readings can be large or run the other way. Potencies beside an inconclusive call are fits to weak or partial responses and may not hold up.
# Target: Single-stranded DNA cytosine deaminase (Homo sapiens) (UniProt Q9GZX7)
# Assay: Primary qHTS assay for inhibitors of Activation Induced Cytidine Deaminase (AID): AID signal; note: nearly all actives have a fitted effect of over 25% in size
# Details: AID deamination FRET fluorescence, UDG-coupled, 4 h; activity change, negative = inhibition: at 115 µM (top of the series)
# % is set by controls: 0 for no effect and ±100 for the full control effect; potency is the fitted concentration of half-maximal effect; tags give direction and shape of the fitted curve.
# Chain of UniProt Q9GZX7 (Q9GZX7 whole entry, looked up): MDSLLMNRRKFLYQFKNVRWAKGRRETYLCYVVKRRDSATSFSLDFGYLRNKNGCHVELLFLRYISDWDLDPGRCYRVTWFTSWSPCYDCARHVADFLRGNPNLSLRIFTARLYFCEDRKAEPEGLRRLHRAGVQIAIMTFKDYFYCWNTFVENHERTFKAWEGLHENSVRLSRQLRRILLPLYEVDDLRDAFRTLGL
SMILES,"activity change, negative = inhibition",Potency
Cc1ccccc1NC(=O)c1cc2c(=O)n3cccc(C)c3nc2n1Cc1ccccc1,inactive: -5.68%,–
COc1ccc(CNC(=O)c2cc(-c3cccc(Cl)c3)on2)cc1,–,"inconclusive: 89.1 µM [inhibitor, single point]"
CC(C)c1ccc(NC(=O)C2CCN(c3nc(-c4ccc(C(C)C)cc4)no3)CC2)cc1,–,"inconclusive: 39.8 µM [inhibitor, single point]"
CCOC(=O)c1ccc(/C=C/c2ccccn2)cc1,inactive: -3.6%,–
COc1cc(C2CC(=O)N(Cc3ccc(F)cc3)c3ccccc3S2)cc(OC)c1OC (stereo not drawn),–,"inconclusive: 31.6 µM [inhibitor, full curve, poor fit]"
Cc1c(C(=O)Nc2ccccc2)sc(N)c1C#N,inactive: 6.3%,–
Cc1cccc(Cn2c(N3CCc4ccccc4C3)nc3c2c(=O)n(C)c(=O)n3C)c1,–,"inconclusive: 50.1 µM [inhibitor, partial curve, poor fit]"
Cc1cc(N2CCC(C)CC2)nc2ccc(NC(=O)CCC(=O)N3CCN(c4ccccc4F)CC3)cc12,–,"inconclusive: 39.8 µM [inhibitor, single point]"
Cc1nc(-c2ccc(C)c(S(=O)(=O)N3CCC(C(=O)NCc4ccc(F)cc4)CC3)c2)no1,–,"inconclusive: 89.1 µM [inhibitor, single point]"
COc1ccccc1OC(C)C(=O)c1ccc(C)cc1 (stereo not drawn),inactive: -8.48%,–
CCC(C)NC(=O)c1cn(CC)c2ccc(S(=O)(=O)N3CCc4ccccc4C3)cc2c1=O (stereo not drawn),–,"inconclusive: 56.2 µM [inhibitor, partial curve, poor fit]"
Cc1cc(C)c(NC(=O)CCc2c[nH]c3ccccc23)c(C)c1,inactive: 1.98%,–
O=C(/C=C/Nc1ccc(Cl)c(C(F)(F)F)c1)c1ccc(Cl)cc1,–,"inconclusive: 100 µM [inhibitor, single point]"
COc1cccc(-n2c(C)c(C)c3c2ncn2nc(-c4cccs4)nc32)c1,inactive: -4.88%,–
O=C1CCSc2ccc(S(=O)(=O)Nc3cccc(C(F)(F)F)c3)cc2N1,–,"inconclusive: 100 µM [inhibitor, single point]"
CCOc1ccc2c(c1)c(=O)c(S(=O)(=O)c1ccc(CC)cc1)cn2Cc1cccc(Cl)c1,–,"inconclusive: 70.8 µM [inhibitor, single point]"
CCCSc1ncnc2c1c(-c1ccccc1)cn2-c1ccccc1OC,–,"inconclusive: 10 µM [inhibitor, full curve, poor fit]"
CCN(CC)C(=O)C1CCCN(c2ncnc3c2c(-c2ccccc2)cn3-c2cccc(C)c2)C1 (stereo not drawn),–,"inconclusive: 39.8 µM [inhibitor, partial curve, poor fit]"
